Among the data in article PMC4242493 are binding signal (normalized occupancy) values, retold here.

This is one part of the list. The list includes weakly bound sequences.

The target in this test is MaxL homodimer (UniProt P61244). Description: universal protein-binding microarray (PBM). To be noted: PBS-based mixture, 10 nM His-tagged protein dimer, 2% milk, 200 ng/uL BSA, 50 ng/uL salmon testes DNA, 0.02% TX-100; detection with Alexa 488 anti-His …; high values mean tight binding; most listed sequences are background and not binding sites; double strand, one strand shown.
UniProt P61244, sequence (P61244 whole entry): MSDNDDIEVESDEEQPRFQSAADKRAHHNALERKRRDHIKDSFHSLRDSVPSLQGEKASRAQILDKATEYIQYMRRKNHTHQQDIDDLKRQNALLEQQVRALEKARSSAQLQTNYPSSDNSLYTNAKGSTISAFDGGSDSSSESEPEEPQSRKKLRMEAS
In the case of TGAAGCCA, the binding signal (normalized occupancy) came to 0.0709.

In the case of GGGGTACC, the binding signal (normalized occupancy) came out at 0.0706. For the sequence CTAAGTGA, the binding signal (normalized occupancy) worked out at 0.0719. In the case of CTCTGAGA it was 0.0756; in that of AGAGACGC, 0.0751; in that of AAGGGCAC, 0.0706.

For the sequence AAAGGAGC, the binding signal (normalized occupancy) is 0.0705. With AGGGGTTA the figure was 0.0759.

Turning to CATCGCAA, the binding signal (normalized occupancy) was found to be 0.0733. In the case of AGCAGGGC it was 0.0712; in that of ACTGGGGA, 0.0716. In the case of AAATGGAT it was 0.0798; in that of CCCTATGC, 0.0769; in that of AGAGACTC, 0.0733. For ATTTGCAC, the binding signal (normalized occupancy) turned out to be 0.0853. AAGAGTTC: the binding signal (normalized occupancy) turned out to be 0.0711. Consider CCTGAGCA, for which the binding signal (normalized occupancy) was 0.0752. With GAAGTGGC the figure was 0.0724. In the case of CGGAGTGA it was 0.0696. As to CCAACGCA, the binding signal (normalized occupancy) turned out to be 0.0789. Take AGTTAAAA: the binding signal (normalized occupancy) turned out to be 0.0725. In the case of ACAGACCA it was 0.0727; in that of CAGTGGGC, 0.069. With CCCAAGGC the figure was 0.0695; with ACACAAAG, 0.0736. In the case of TTTAAAAA it was 0.0713; in that of CACTAAGG, 0.0761; in that of ACGACGAT, 0.0725. In the case of ACCTGCTA, the binding signal (normalized occupancy) turned out to be 0.0768. In the case of GCTCGGCA it was 0.0724; in that of CATATCTA, 0.0831.

For CTCGGCAG, the binding signal (normalized occupancy) amounted to 0.0663. With AAGCTACC the figure was 0.0714; with ACGTTTCT, 0.079; with CCGACTGA, 0.0699.

Take CTGTGCTA: the binding signal (normalized occupancy) stood at 0.0696. Regarding CGATAGCC, the binding signal (normalized occupancy) was 0.0708. With AACTTTAC the figure was 0.0691. In the case of ATCGTGAC it was 0.0839; in that of GGCGGCAA, 0.0675; in that of ATCAGGTC, 0.0755. With CTTAACCA the figure was 0.0834.

Take CAGTTCTA: the binding signal (normalized occupancy) was 0.0733. In the case of ATCCGACC, the binding signal (normalized occupancy) is 0.0741.

Regarding TACGAGGA, the binding signal (normalized occupancy) turned out to be 0.0793. On to ACAGATGT, for which the binding signal (normalized occupancy) amounted to 0.0823. With TCCACCGA the figure was 0.0714. In the case of AGCAGAGG it was 0.0694. With GACCAACA the figure was 0.0715; with ACTACGAC, 0.0671. As for AGCACGCA, the binding signal (normalized occupancy) came out at 0.0909.

Regarding AAACGACA, the binding signal (normalized occupancy) came out at 0.076. With AGGCCCTA the figure was 0.0692.

As for AGCCCGGG, the binding signal (normalized occupancy) was 0.0644. With GCGCCTTA the figure was 0.0728; with ATACATCG, 0.0796.

For ATCGGTGG, the binding signal (normalized occupancy) stood at 0.0729. In the case of TGCGTTAA it was 0.0729. Take ATGGATTG: the binding signal (normalized occupancy) turned out to be 0.0798. With ACGGACTG the figure was 0.0704; with ATCCAAAT, 0.0802; with GCGTGATA, 0.1. With AAATAGGT the figure was 0.0809; with AATTTCCG, 0.0694. In the case of AGCGTAAG it was 0.0684. In the case of CAAAGAGC, the binding signal (normalized occupancy) was 0.0689. In the case of ATGCCATG it was 0.0897. With CACCCCTC the figure was 0.0876. In the case of AGAAACCA it was 0.0778; in that of CGGATTTA, 0.0745; in that of CGCTCACC, 0.0763. In the case of CGAACGGA, the binding signal (normalized occupancy) was determined as 0.066. With TCCTAAGA the figure was 0.0773; with GGGCAGCA, 0.0719.

On to ACGGTGAT, for which the binding signal (normalized occupancy) came out at 0.0774. With GTCGGGGA, the binding signal (normalized occupancy) was determined as 0.074. With AGGTCAAG the figure was 0.0756.

On to GAAGATGA, for which the binding signal (normalized occupancy) stood at 0.0785.

GCCCGCCA: the binding signal (normalized occupancy) is 0.0684.

As for TGGATCCA, the binding signal (normalized occupancy) turned out to be 0.0759.

With AGAGCCAT, the binding signal (normalized occupancy) is 0.0832. In the case of CGGTGGAA it was 0.0725.

Regarding AGGCGAAC, the binding signal (normalized occupancy) was found to be 0.0698. With GACTTATC the figure was 0.0755; with AAGCGTAT, 0.0722.

In the case of GATTATAA, the binding signal (normalized occupancy) is 0.0749. In the case of CACCCCGG it was 0.0778; in that of AATTGTCC, 0.0765; in that of CCGTCCCG, 0.0665. In the case of CCAAGGGA it was 0.0721; in that of CTGTATCC, 0.0783; in that of AACGAAAG, 0.068.

Take AAGTTAAT: the binding signal (normalized occupancy) was 0.078. In the case of GTGGGTCA it was 0.0811; in that of GGGGAACC, 0.0765. Consider GCCTCGCA, for which the binding signal (normalized occupancy) was found to be 0.0754. With AACAAAGT the figure was 0.0719. With GGTAGTCA the figure was 0.0743. With CGCCCAAC the figure was 0.0729; with CAGAGAAC, 0.0692; with GCATATAC, 0.08. With CCCAAGCG, the binding signal (normalized occupancy) is 0.0709.

With CTTTTCGC, the binding signal (normalized occupancy) was 0.0706.

As to TGAGCTAA, the binding signal (normalized occupancy) was determined as 0.0823. In the case of GTCCGCGA it was 0.0687.

CGCAATCC: the binding signal (normalized occupancy) was 0.0789. With AGAACCTA the figure was 0.0874; with CCCCTTAC, 0.0812. For ATTCGCTG, the binding signal (normalized occupancy) came out at 0.0739. With TGCAGCCA the figure was 0.0797. For CCGTCCTC, the binding signal (normalized occupancy) was found to be 0.0798. In the case of AAGTGAGT it was 0.0741. In the case of ATATGTAG it was 0.0877; in that of AGCCTTGA, 0.0712. For the sequence TACAGACA, the binding signal (normalized occupancy) came to 0.0803.

Turning to ACCTGTGG, the binding signal (normalized occupancy) was 0.0787. In the case of ATGGGCGC it was 0.0724; in that of ACAGAATG, 0.076; in that of CCATAGTC, 0.0746. With ATCAATAC the figure was 0.0782; with CATACTGC, 0.076. With AACGGTTC the figure was 0.0714. Regarding ATTCCTGG, the binding signal (normalized occupancy) is 0.0767. With GATTCATA the figure was 0.0895; with GCTCTGTA, 0.0761. AGCTCATC: the binding signal (normalized occupancy) worked out at 0.0724. With CTACTTGA the figure was 0.0752. With GGGACTAA the figure was 0.0713; with TCACGCAA, 0.0764.

As to ACCATCGT, the binding signal (normalized occupancy) amounted to 0.0731.

With GTAAAAAC, the binding signal (normalized occupancy) worked out at 0.0756.

As for ATCATGCA, the binding signal (normalized occupancy) came to 0.0894. Turning to AGGGTCAA, the binding signal (normalized occupancy) worked out at 0.0739. With GTTTTACA, the binding signal (normalized occupancy) was 0.078. In the case of ATACCAAC it was 0.0854. Consider ACCGGTGA, for which the binding signal (normalized occupancy) was 0.0754. With CCGTTAAC the figure was 0.0763. In the case of AAGGACTA it was 0.0776; in that of CAAATAAC, 0.0791; in that of ACGTTGAC, 0.0793.

For AGGTCATC, the binding signal (normalized occupancy) is 0.0756. With ACCTCTTA the figure was 0.0702. With AATACGCA the figure was 0.0742. With CCTGGCTA the figure was 0.0744; with GAGAGGTA, 0.07; with ATGTGGGC, 0.0919.

On to GCTATCAC, for which the binding signal (normalized occupancy) worked out at 0.0795. With CTGCTGGA the figure was 0.0659. In the case of AAAAAAAA it was 0.0744; in that of GCACCACA, 0.0811.

In the case of ACCGGAAA, the binding signal (normalized occupancy) worked out at 0.069. With TAGGTATA the figure was 0.0792; with AAGAAGTC, 0.0701. On to CGACGCGA, for which the binding signal (normalized occupancy) came to 0.0735. In the case of GCGCGCCC it was 0.0752; in that of GCGCCGAA, 0.0677. With TTAACAAA the figure was 0.0691.

Turning to AGCGATAC, the binding signal (normalized occupancy) amounted to 0.0737.

As to GCTAGCAA, the binding signal (normalized occupancy) was 0.0714. With AAAAAGTC the figure was 0.0705; with GGTAATAA, 0.0819.

With AGCGTACA, the binding signal (normalized occupancy) is 0.0796. In the case of CCCATACG it was 0.0864; in that of ATTTAGCG, 0.0772; in that of CCCTCACC, 0.082. With ATATAAGC the figure was 0.0774; with AATTTTGC, 0.0704. On to AAGATCTT, for which the binding signal (normalized occupancy) worked out at 0.0757. With CGTCGCCA the figure was 0.0755; with AGCTGAAC, 0.0705.

AAACAAGG: the binding signal (normalized occupancy) was 0.0761. With TCGTTGAA the figure was 0.074.
